Results on 65 compounds are retold here after PubChem BioAssay (NCI).

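Interpolation was linear, between the two tested concentrations surrounding the appropriate level; five concentrations were tested over 48 hours in 96-well plates. GI50 = concentration required for 50% inhibition of growth. TGI marks complete inhibition of growth.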 Bounds are passed on as bounds.

This assay deals with NCI-H322M lung. Briefly: inhibition of tumour cell growth, NCI panel, 48 h.
As to `COc1cccc2c1C(=N)c1c(O)c3c(c(O)c1C2=O)C[C@@](O)(C(C)=O)C[C@@H]3O[C@H]1C[C@H](N)[C@H](O)[C@H](C)O1`, the GI50 was 2.16 µM and the TGI came to 9.92 µM.
As to `O=c1[nH]c2cc(C(F)(F)F)ccc2nc1C(F)(F)F`, the TGI is > 100 µM.
`C=CCCON(C(=O)OC(C)(C)C)c1ccccc1`: the TGI was > 100 µM.
Consider `COc1ccc([C@@]2(O)c3c(ccc(O)c3OC)[C@H]2OC)c(OC)c1`, for which the TGI is > 100 µM.
Same read-out and setting: the value for `COc1ccc(NC(=O)CC/C(CC(=O)c2ccco2)=N/NC(=O)C(N)=O)cc1` was > 100 µM; that for `Cc1ccc2c(ccc(/C=C/c3ccc(O)c4ncccc34)[n+]2C)c1` was 24.9 µM.
The same measure, in the same setting: the value for `COC1(OC)N=C(N)C2(C#N)C(c3ccccc3)NC3=C(CCC3)C12C#N` (stereo not given) was > 100 µM; that for `OC(CC1CCCCN1)c1ccc2c(c1)oc1ccccc12` (stereo not given) was > 100 µM.
With `COc1ccc(-c2c(C(C)=O)c(-c3ccccc3)n(C3OC(CO)C(O)C(O)C3O)c(=S)c2C#N)cc1` (stereo not given), the TGI was > 100 µM.
Regarding `C[C@]12CC=CC(=O)[C@@]1(C)CCC(=O)C2`, the TGI was > 100 µM.
With `Oc1ccc2ccccc2c1N=Nc1cccc2ccccc12`, the TGI is > 100 µM.
With `COc1ccc2c(c1)C(=O)/C(=C/c1cccc(OCC(=O)c3ccccc3)c1)O2`, the GI50 is 19.4 µM and the TGI is 33.6 µM.
On to `CCOP(=Nc1ccc(N(C)C)cc1)(OCC)OCC`, for which the TGI is > 100 µM.
Still for that read-out and setting: the value for `N#CCC(=O)N/N=C1/C(=O)N(c2ccc(Cl)cc2)C(=O)C(=O)C1c1nc2ccccc2s1` (stereo not given) was > 100 µM.
`C=C1c2c(C)nn(-c3ccc(C#CCOC4OC(CO)C(O)C(O)C4O)cc3)c2N(C)C23C[C@H]1C1(C)c4c(C)nn(-c5ccc(C#CCOC6OC(CO)C(O)C(O)C6O)cc5)c4N(C)C(C)(C[C@H]12)C3` (stereo not given in full): the GI50 is 1.76 µM and the TGI is 3.75 µM.
With `O=c1oc2ccccc2c(Nc2ccc3c(c2)Sc2ccccc2O3)c1[N+](=O)[O-]`, the TGI was 62 µM.
Same read-out and setting: under `S=C(N/N=C/c1ccccn1)N1CCCCC1` stands > 100 µM; under `CCCC1(CC(=O)O)OCCc2c1[nH]c1ccccc21` (stereo not given), > 100 µM.
Turning to `CCOC(=O)[CH-]C(=O)C12CC3CC(CC(C3)C1)C2.CCOC(=O)[CH-]C(=O)C12CC3CC(CC(C3)C1)C2.CC[O-].CC[O-].[Ti+4]`, the GI50 was > 100 µM and the TGI was > 100 µM.
With `COc1ccc(C(C#N)NC23CC4CC(CC(C4)C2)C3)cc1` (stereo not given), the TGI is > 100 µM.
Regarding `NC(CSC(c1ccccc1)(c1ccccc1)c1ccccc1)C(=O)NCC(=O)O` (stereo not given), the GI50 is 4.85 µM and the TGI was > 100 µM.
As to `O=S(=O)(O)c1ccc(N=Nc2ccc3c(S(=O)(=O)O)cccc3c2O)c2ccccc12`, the TGI was > 100 µM.
For the compound `CN(C)Cc1cc(C(F)(F)F)ccc1C(O)(c1ccccc1)c1ccccc1`, the TGI was 26.7 µM.
With `CC1(C)[C@@H]2CC[C@]1(C)[C@H](OC(=O)CSC#N)C2`, the TGI was > 100 µM.
On the same count and under the same terms, the value for `Cc1c(N2C(=O)C(Cl)C2/C=C/c2ccccc2)c(=O)n(-c2ccccc2)n1C` (stereo not given) was 56.2 µM.
For `O=c1[nH]c2ccccc2cc1-c1nc2ccc(Cl)cc2[nH]1`, the GI50 is 3.65 µM and the TGI is > 100 µM.
`NC(=Nc1ccccc1Cl)c1ccccc1N`: the TGI was > 100 µM.
As for `CCOC(=O)/C=C(\C(=O)OCC)n1cc(C)c(=O)n(Cc2cn(CCCCOC(C)=O)nn2)c1=O`, the TGI came out at 46.2 µM.
Still for that read-out and setting: under `OCC12C=CC(C1)c1ccccc12` (stereo not given) stands > 100 µM.
As for `COc1ccc(Cn2c(=O)c(OC)c(C)c3cc4ccccc4cc32)cc1`, the TGI was > 100 µM.
Same read-out and setting: under `CN(C)CCNC(=O)c1cccc2c(=O)c3ccccc3oc12` stands 84.4 µM.
On the same count and under the same terms, the value for `C=C(C)C1CCC(C(=O)O)CC1` (stereo not given) was > 100 µM; that for `O=C(Nc1ccc(C(F)(F)F)cc1[N+](=O)[O-])C(=O)C1NC(=S)NC1=O` (stereo not given) was > 100 µM.
On the same count and under the same terms, under `CSC(SC)(C(=O)O)c1cc(-c2c(Cl)cccc2Cl)no1` stands 93.5 µM; under `CC1C2CC(C(S(=O)(=O)O)C2=O)C1(C)C` (stereo not given), > 100 µM.
In the case of `O=c1oc(-c2ccccc2)cn1-c1ccccc1`, the TGI is > 100 µM.
Turning to `O=[N+]([O-])c1ccc(CSc2nncc3[nH]cnc23)cc1`, the TGI was > 100 µM.
Same read-out and setting: the value for `CC12C=CC(C)(C3C(=O)C4C(C(=O)C31)C1(C)C=CC4(C)S1=O)S2=O` (stereo not given) was > 100 µM; that for `Nc1ncnc2c1ncn2C1C=C(CO)C(O)C1O` (stereo not given) was > 100 µM; that for `Nc1cc([N+](=O)[O-])ccc1C(=O)N1CCC[C@H]1CO` was > 100 µM.
Consider `COc1ccc(/C=C2\N=C(N3CCCCC3)NC2=O)cc1`, for which the TGI is > 100 µM.
Regarding `COc1ccc2c(c1)CN1C(=N2)CSC1c1cccc(Br)c1` (stereo not given), the TGI was > 100 µM.
With `C=CCn1c(N)c(C#N)c(C#N)c1CCC`, the TGI is > 100 µM.
Consider `Cc1ccc(C(=O)O)c(/C=C2\Cc3ccc(C)cc3C2=O)c1`, for which the TGI is > 100 µM.
Take `CC1(C)N/C(=C\[N+](=O)[O-])C(C)(C)N1O`: the TGI is > 10 µM.
On the same count and under the same terms, under `C[C@@H](C(=O)O)N1C(c2ccco2)=C(/C(C=O)=C\c2ccco2)C(=O)/C1=C\c1ccco1` stands > 100 µM; under `COc1ccc2c(c1)/C(=C\c1c(Cl)[nH]c3cc(C)c(OC)cc13)C(=O)N2`, 15.7 µM; under `COc1ccc(C=O)cc1O[Si](C)(C)C(C)(C)C`, > 100 µM.
For the compound `COc1cc2c(cc1OCCCCCCCCCCN1C(=O)c3cccc4cccc(c34)C1=O)N=C[C@@H]1CCCN1C2=O`, the TGI is 42.7 µM.
Regarding `COC(=O)c1ccc2[nH]c(O)c(C(=Nc3ccc(N(C)C(=O)CN4CCN(C)CC4)cc3)c3ccc4c(c3)OCO4)c2c1`, the GI50 is 0.908 µM and the TGI is 4.04 µM.
On to `CCCCCCNCCc1cnc[nH]1`, for which the TGI was > 100 µM.
Take `CCOc1cccc(/C=N/NC(=O)c2cccc(Nc3ccnc(C(F)(F)F)c3)c2)c1O`: the GI50 is 0.55 µM and the TGI is 61.2 µM.
With `CS(=O)(=O)C(C#N)c1nc2ccccc2nc1Cl` (stereo not given), the TGI was > 100 µM.
Still for that read-out and setting: the value for `NC(CCCC(N)P(=O)(O)O)P(=O)(O)O` (stereo not given) was > 100 µM.
`CC1(c2cccc(C3CC4(CCC3=O)OCCCCO4)c2)OCCO1` (stereo not given): the TGI is > 100 µM.
`Cc1cn(C2CC(OC(=O)c3ccc(Cl)cc3)C(COC(=O)c3ccc(Cl)cc3)O2)c(=O)[nH]c1=O` (stereo not given): the TGI was > 100 µM.
As for `O=C(NN1C(=O)C(Cl)C1c1ccc(Cl)cc1)c1c(Cl)c(Cl)c(Cl)c(Cl)c1-c1nc2ccccc2[nH]1` (stereo not given), the TGI was > 100 µM.
On to `CC1(C)N=C(N)N=C(N)N1c1ccc(CCC(=O)Nc2ccc(S(=O)(=O)F)cc2)c(Cl)c1`, for which the GI50 is 3.04 µM and the TGI was > 100 µM.
Take `CC(=O)OCC1OC(N2C(c3ccccc3)=CC(c3cccs3)C(C#N)=C2S)C(OC(C)=O)C(OC(C)=O)C1OC(C)=O` (stereo not given): the TGI was > 100 µM.
On to `CCCCCCCCn1ccc2cc(NC(=O)Cn3cc(CN4CCCCCC4)nn3)ccc21`, for which the GI50 was 1.69 µM and the TGI was found to be 3.15 µM.
`Cc1n(CC(C)C)c2c([n+]1C)C(=O)c1ccccc1C2=O` came in with a TGI of 1.13 µM.
Turning to `CN(C)CCOc1ccc([N+](=O)[O-])c2cccnc12`, the TGI was > 100 µM.
Regarding `CCC1C[N+]23CCc4c([nH]c5ccccc45)C2CC1CC3` (stereo not given), the TGI is > 100 µM.
As for `CNc1ncccc1Nc1cc(=O)n2c3cccnc3n(C)c2c1`, the TGI is > 100 µM.
Regarding `Cc1cccc(Cl)c1NCC(O)CN1CCN(C)CC1` (stereo not given), the TGI is > 100 µM.
